# Assay results as given in article PMC9930443 (2022).
# Tested on: Trypsin
# Assay: trypsin in 100mM Tris pH 7.8
# Details: 37C, up to 25h
row,cleaved bond,Sequence
1,"Lys7-Asp8, major",SEMRLEKDRFSVNL
2,"Arg4-L5, major",SEMRLEKDRFSVNL (D-isoAsp-8)
